“And” between values parts separate entries of the source, which are not always exact repeats. Identical values can stand only once. The inconclusive results got no clear call from the source; some entries with a clear call stand among them for comparison. Where the call is inconclusive, the potency comes from a doubtful curve fit. The source made the active and inactive calls. Unless noted, calls come from the whole dose curve; as a rule, active = well fitted curve in the direction sought with a large enough effect in the repeat runs; inconclusive = weak or mixed curves; inactive = no such curve, though single readings can be large; an effect the other way counts as inactive or inconclusive.
Key:
[1] = biological target: Peroxisome proliferator-activated receptor gamma (Homo sapiens) (UniProt P37231); test: qHTS assay to identify small molecule agonists of the peroxisome proliferator-activated receptor gamma (PPARg) signaling pathway (AID 743094; active = well fitted activation curve with a large enough effect in the signal ratio in the repeat runs, not every such curve was filed as active; inconclusive = weak or mixed curves, or effect the other way; inactive = no such curve, though single readings can be large or run the other way; the % refers to the signal ratio; for activation: % is set by controls: 0 for no effect and ±100 for the full control effect); conditions: HEK293H PPARg-UAS-bla, beta-lactamase FRET ratio, 17 h; for Potency: activation: at 57 µM (top of the series) unless noted
Summary of the method: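 GeneBLAzer PPARg UAS-bla HEK293H cells were plated, rested 5 h, then exposed to compounds for 17 h at 37C. Beta-lactamase activity was read by LiveBLAzer B/G FRET substrate fluorescence after 1 h at room temperature.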

[2] = biological target: Peroxisome proliferator-activated receptor gamma (Homo sapiens) (UniProt P37231); test: qHTS assay to identify small molecule antagonists of the peroxisome proliferator-activated receptor gamma (PPARg) signaling pathway (AID 743191; calls by dose curve; note: nearly all actives have a fitted effect of over 30% in size); conditions: HEK293H PPARg-UAS-bla, beta-lactamase ratio, antagonist, 17 h; ratio activity, negative = inhibition: at 62.6 µM (top of the series) unless noted
Summary of the method: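 GeneBLAzer PPARg UAS-bla HEK293H cells, 5 h post-plating, exposed to compounds 17 h at 37C. LiveBLAzer B/G FRET substrate added for 1 h at room temperature; beta-lactamase reporter read by fluorescence intensity.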

[3] = qHTS assay to identify small molecule antagonists of the peroxisome proliferator-activated receptor gamma (PPARg) signaling pathway - cell viability counter screen (AID 743194); conditions: PPARg-bla HEK293H viability, CellTiter-Glo luminescence, 17 h, co-treated with 50 nM rosiglitazone; activity change, negative = cytotoxicity: at 62.6 µM (top of the series) unless noted; note: nearly all actives have a fitted effect of over 55% in size
Summary of the method: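 Cytotoxicity counter screen in PPARg-bla HEK293H cells, same wells as reporter assay. Compounds plus 50 nM rosiglitazone (final) for 17 h at 37 C, then viability read by CellTiter-Glo luminescence.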

[4] = qHTS assay for small molecule agonists of the antioxidant response element (ARE) signaling pathway (AID 743202; active = well fitted activation curve with a large enough effect in the signal ratio in the repeat runs, not every such curve was filed as active; inconclusive = weak or mixed curves, or effect the other way; inactive = no such curve, though single readings can be large or run the other way; the % refers to the signal ratio; for activation: % is set by controls: 0 for no effect and ±100 for the full control effect); conditions: HepG2 ARE-bla reporter, beta-lactamase FRET, 16 h; activation: at 73.3 µM (top of the series) unless noted
Summary of the method: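 Agonist mode reporter screen: HepG2 cells with ARE-controlled beta-lactamase are incubated with test compounds for 16 h at 37 C, and beta-lactamase activity is measured as fluorescence of cleaved B/G FRET substrate.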

[5] = qHTS assay for small molecule agonists of the antioxidant response element (ARE) signaling pathway - cell viability counter screen (AID 743203; calls by dose curve; note: nearly all actives have a fitted effect of over 55% in size); conditions: ARE-bla HepG2 viability, CellTiter-Glo luminescence, 16 h; viability change, negative = cytotoxic: at 73.3 µM (top of the series)
Summary of the method: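 ARE-bla HepG2 cells were plated, rested 5 h at 37C/5% CO2, then exposed to compounds in DMSO for 16 h. Viability was read as CellTiter-Glo luminescence after 30 min at room temperature, in the same wells as the ARE screen.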

[6] = qHTS assay for small molecule activators of the heat shock response signaling pathway - cell viability counter screen (AID 743209); conditions: HSE-bla HeLa viability, CellTiter-Glo luminescence, 5 h; activity change, negative = cytotoxicity: at 62.6 µM (top of the series) unless noted; note: nearly all actives have a fitted effect of over 50% in size; for activity change, negative = cytotoxicity: % is set by controls: 0 for no effect and ±100 for the full control effect
Summary of the method: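 HSE-bla HeLa cells plated overnight, then exposed to Tox21 compounds (23 nL in DMSO) for 5 h at 37 C. After the bla reporter read, CellTiter-Glo was added in the same wells and luminescence read after 30 min at room temperature.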

[7] = qHTS assay to identify small molecule agonists of the peroxisome proliferator-activated receptor delta (PPARd) signaling pathway - cell viability counter screen (AID 743211); conditions: PPARd-bla HEK293H viability, CellTiter-Glo luminescence, 17 h; activity change, negative = cytotoxicity: at 62.6 µM (top of the series) unless noted; note: nearly all actives have a fitted effect of over 55% in size
Summary of the method: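 Tox21 library compounds, delivered in DMSO, were incubated 17 h with PPARd-bla HEK293H cells; cytotoxicity was taken from CellTiter-Glo luminescence read 30 min after reagent addition.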

[8] = biological target: Peroxisome proliferator-activated receptor delta (Homo sapiens) (UniProt Q03181); test: qHTS assay to identify small molecule agonists of the peroxisome proliferator-activated receptor delta (PPARd) signaling pathway (AID 743212; calls by dose curve); conditions: HEK293H PPARd-UAS-bla, beta-lactamase FRET ratio, 17 h; activation: at 62.6 µM (top of the series) unless noted
Summary of the method: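 Quantitative high-throughput agonist screen in a HEK293H beta-lactamase reporter line under UAS control. Compounds in DMSO, at 37 C. Fluorescence read after 2 h with FRET substrate at room temperature.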

[9] = qHTS assay to identify small molecule antagonists of the peroxisome proliferator-activated receptor delta (PPARd) signaling pathway - cell viability counter screen (AID 743213); conditions: PPARd-bla HEK293H viability, CellTiter-Glo luminescence, 17 h; viability change, negative = cytotoxic: at 62 µM (top of the series) unless noted; note: nearly all actives have a fitted effect of over 50% in size
Summary of the method: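 PPARd-bla HEK293H cells (3000/well) got compound plus 300 nM L165041 agonist for 17 h at 37 C. Viability in the same wells came from CellTiter-Glo luminescence after 30 min at room temperature.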

[10] = biological target: Bile acid receptor (Homo sapiens) (UniProt Q96RI1); test: qHTS assay to identify small molecule antagonists of the farnesoid-X-receptor (FXR) signaling pathway (AID 743217; active = well fitted inhibition curve with a large enough effect in the signal ratio in the repeat runs, not every such curve was filed as active; inconclusive = weak or mixed curves, or effect the other way; inactive = no such curve, though single readings can be large or run the other way; the % refers to the signal ratio); conditions: HEK293T FXR-UAS-bla, beta-lactamase ratio, CDCA-stimulated, 16 h; activity change, negative = inhibition: at 62.6 µM (top of the series) unless noted
Summary of the method: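 FXR-UAS-bla HEK 293T cells (beta-lactamase reporter) given compound plus chenodeoxycholic acid (50 uM final), 16 h at 37C. LiveBLAzer B/G FRET substrate added for 2 h at room temperature; fluorescence read.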

[11] = qHTS assay to identify small molecule agonists of the farnesoid-X-receptor (FXR) signaling pathway - cell viability counter screen (AID 743218); conditions: FXR-bla HEK293T viability, CellTiter-Glo luminescence, 16 h; viability change, negative = cytotoxic: at 62.6 µM (top of the series) unless noted; note: nearly all actives have a fitted effect of over 45% in size
Summary of the method: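 FXR-UAS-bla HEK 293T cells exposed to compounds for 16 h at 37C. Cytotoxicity read in the same wells by CellTiter-Glo luminescence after 30 min at room temperature, following the beta-lactamase FRET read.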

[12] = qHTS assay to identify small molecule antagonists of the farnesoid-X-receptor (FXR) signaling pathway - cell viability counter screen (AID 743221; active = well fitted cell-killing curve with a large enough effect in the repeat runs, not every such curve was filed as active; inconclusive = weak or mixed curves, or effect the other way; inactive = no such curve, though single readings can be large or run the other way; note: nearly all actives have a fitted effect of over 50% in size); conditions: FXR-bla HEK293T viability, CellTiter-Glo luminescence, 16 h; activity change, negative = cytotoxicity: at 62.6 µM (top of the series) unless noted
Summary of the method: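 Cytotoxicity is taken from ATP luminescence (CellTiter-Glo, 30 min, room temperature) in FXR-bla HEK 293T cells previously incubated 16 h at 37 C with compound and chenodeoxycholic acid at 50 uM final.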

[13] = biological target: Vitamin D3 receptor (Homo sapiens) (UniProt P11473); test: qHTS assay to identify small molecule antagonists of the vitamin D receptor (VDR) signaling pathway (AID 743223; active = well fitted inhibition curve with a large enough effect in the signal ratio in the repeat runs, not every such curve was filed as active; inconclusive = weak or mixed curves, or effect the other way; inactive = no such curve, though single readings can be large or run the other way; the % refers to the signal ratio); conditions: VDR-UAS-bla HEK293T, beta-lactamase FRET ratio, 16 h; activity change, negative = inhibition: at 61 µM (top of the series) unless noted
Summary of the method: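 Quantitative HTS in VDR-bla reporter cells stimulated with 1alpha,25-dihydroxyvitamin D3, 3 nM final. Compound exposure 16 h, 37C, 5% CO2. Read-out: beta-lactamase FRET substrate fluorescence, 2 h RT.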

[14] = biological target: Vitamin D3 receptor (Homo sapiens) (UniProt P11473); test: qHTS assay to identify small molecule agonists of the vitamin D receptor (VDR) signaling pathway (AID 743222; calls by dose curve; for activation: % is set by controls: 0 for no effect and ±100 for the full control effect); conditions: HEK293T VDR-UAS-bla, beta-lactamase FRET ratio, 16 h; activation: at 63.5 µM (top of the series) unless noted
Summary of the method: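 VDR-bla cells plated 4 h at 37 C, then exposed to compounds for 16 h at 37 C. Beta-lactamase reporter activity measured by fluorescence after 2 h room-temperature loading with LiveBLAzer B/G FRET substrate.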

[15] = qHTS assay to identify small molecule agonists of the vitamin D receptor (VDR) signaling pathway - cell viability counter screen (AID 743224); conditions: VDR-bla HEK293T viability, CellTiter-Glo luminescence, 16 h; activity change, negative = cytotoxicity: at 62.6 µM (top of the series); note: nearly all actives have a fitted effect of over 50% in size
Summary of the method: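 VDR-bla cells, 4 h after plating, exposed to compounds for 16 h at 37C; viability then read in the same wells as CellTiter-Glo luminescence after 30 min at room temperature, following the bla FRET read.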
Potency is the fitted concentration of half-maximal effect; tags give direction and shape of the fitted curve or compound fluorescence and quenching.

Sequence of UniProt P11473 (P11473 whole entry, looked up): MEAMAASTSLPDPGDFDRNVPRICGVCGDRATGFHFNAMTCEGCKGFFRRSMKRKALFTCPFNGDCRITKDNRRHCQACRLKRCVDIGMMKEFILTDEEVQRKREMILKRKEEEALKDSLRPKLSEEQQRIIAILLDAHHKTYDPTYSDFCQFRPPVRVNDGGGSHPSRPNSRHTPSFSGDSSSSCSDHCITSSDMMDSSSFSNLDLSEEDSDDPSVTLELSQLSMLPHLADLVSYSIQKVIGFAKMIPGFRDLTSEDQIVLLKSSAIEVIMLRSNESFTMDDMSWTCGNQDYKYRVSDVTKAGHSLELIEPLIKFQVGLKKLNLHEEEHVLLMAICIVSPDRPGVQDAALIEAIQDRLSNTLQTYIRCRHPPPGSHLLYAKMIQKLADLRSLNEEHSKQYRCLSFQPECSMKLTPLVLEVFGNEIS
Sequence of UniProt P37231 (P37231 whole entry, looked up): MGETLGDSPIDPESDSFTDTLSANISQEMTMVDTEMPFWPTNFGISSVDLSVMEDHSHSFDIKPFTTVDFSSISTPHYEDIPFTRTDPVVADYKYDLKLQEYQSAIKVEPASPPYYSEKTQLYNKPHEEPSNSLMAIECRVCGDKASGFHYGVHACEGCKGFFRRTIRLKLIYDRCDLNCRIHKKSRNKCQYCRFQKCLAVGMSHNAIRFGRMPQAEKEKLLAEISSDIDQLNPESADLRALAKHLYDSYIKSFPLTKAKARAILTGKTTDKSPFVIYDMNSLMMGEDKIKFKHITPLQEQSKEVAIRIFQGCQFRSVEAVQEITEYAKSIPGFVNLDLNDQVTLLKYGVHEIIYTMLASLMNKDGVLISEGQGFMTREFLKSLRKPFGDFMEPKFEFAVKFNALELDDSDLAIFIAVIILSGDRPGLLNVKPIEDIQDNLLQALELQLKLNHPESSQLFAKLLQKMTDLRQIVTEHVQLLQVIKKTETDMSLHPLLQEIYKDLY
Sequence of UniProt Q03181 (Q03181 whole entry, looked up): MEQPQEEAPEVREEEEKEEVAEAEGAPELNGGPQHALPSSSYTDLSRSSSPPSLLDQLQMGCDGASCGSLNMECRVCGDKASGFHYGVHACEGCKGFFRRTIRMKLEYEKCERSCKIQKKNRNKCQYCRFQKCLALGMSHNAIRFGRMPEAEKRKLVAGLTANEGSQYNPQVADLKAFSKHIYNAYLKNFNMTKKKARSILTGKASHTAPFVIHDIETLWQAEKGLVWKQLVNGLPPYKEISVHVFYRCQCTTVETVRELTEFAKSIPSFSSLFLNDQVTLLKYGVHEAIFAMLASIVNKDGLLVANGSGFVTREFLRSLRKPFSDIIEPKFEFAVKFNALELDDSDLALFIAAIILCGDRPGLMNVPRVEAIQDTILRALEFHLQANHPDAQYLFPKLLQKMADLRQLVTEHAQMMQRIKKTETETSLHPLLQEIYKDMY
Sequence of UniProt Q96RI1 (Q96RI1 whole entry, looked up): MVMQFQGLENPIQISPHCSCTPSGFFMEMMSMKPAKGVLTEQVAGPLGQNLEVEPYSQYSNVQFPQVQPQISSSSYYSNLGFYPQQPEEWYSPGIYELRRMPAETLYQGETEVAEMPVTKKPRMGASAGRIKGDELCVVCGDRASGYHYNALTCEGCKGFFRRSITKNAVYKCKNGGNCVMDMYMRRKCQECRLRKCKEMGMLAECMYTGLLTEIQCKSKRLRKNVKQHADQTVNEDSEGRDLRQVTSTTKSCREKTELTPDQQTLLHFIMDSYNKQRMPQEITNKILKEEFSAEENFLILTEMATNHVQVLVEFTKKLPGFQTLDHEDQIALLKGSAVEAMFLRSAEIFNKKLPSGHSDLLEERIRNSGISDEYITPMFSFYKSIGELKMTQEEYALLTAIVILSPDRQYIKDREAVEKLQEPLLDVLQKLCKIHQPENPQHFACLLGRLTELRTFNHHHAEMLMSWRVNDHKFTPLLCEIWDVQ

Row | SMILES | Potency [1] | Potency [2] | Potency [3] | Potency [4] | Potency [5] | Potency [6] | Potency [7] | Potency [8] | Potency [9] | Potency [10] | Potency [11] | Potency [12] | Potency [13] | activation ([1]; at 57 µM (top of the series)) | activation ([1]; at 78.9 µM (top of the series)) | Potency [14] | Potency [15] | activation [4] | activity change, negative = inhibition [13]
1 | CCCCC/C=C\C=C\C(=O)OCC | inconclusive: 57.2 µM | inconclusive: 57.2 µM [rising, single point] | inconclusive: 57.2 µM [cytotoxic, single point] | inconclusive: 25.4 µM [rising, single point] | inconclusive: 71.5 µM [cytotoxic, single point] | inconclusive: 22.8 µM [cytotoxic, partial curve, poor fit] | inconclusive: 57.2 µM [cytotoxic, single point] | inconclusive: 57.2 µM [rising, single point] | inconclusive: 64.2 µM [cytotoxic, single point] | inconclusive: 64.2 µM [rising, partial curve, poor fit] | inconclusive: 51 µM [cytotoxic, single point] | inconclusive: 51 µM [falling, single point] | inconclusive: 57.2 µM | – | – | – | – | – | –
2 | CCc1nc(N)nc(N)c1-c1ccc(Cl)cc1 | – | – | – | – | inconclusive: 1.75 µM [cytotoxic, full curve] and inconclusive: 1.72 µM [cytotoxic, full curve] | inactive | inconclusive: 15.7 µM [cytotoxic] and inconclusive: 11 µM [cytotoxic, full curve] and inconclusive: 15 µM [cytotoxic, partial curve] | – | inconclusive: 11.1 µM [cytotoxic, full curve, poor fit] and inconclusive: 24.5 µM [cytotoxic, full curve] | – | inconclusive: 2.8 µM [cytotoxic, partial curve] and inconclusive: 15.5 µM [cytotoxic, partial curve] and inconclusive: 10.6 µM [cytotoxic, partial curve, poor fit] | – | – | inconclusive: -15.5% and inconclusive: -11.6% | inconclusive: -14.2% | inactive | inconclusive: 15.7 µM [cytotoxic, partial curve] and active: 17.4 µM and inconclusive: 23.7 µM [cytotoxic, partial curve, poor fit] | – | –
3 | O=C(Nc1ccc(S(=O)(=O)N2CCOCC2)cc1)c1cc(Cl)ccc1NS(=O)(=O)c1ccc(Cl)s1 | inconclusive: 26.8 µM [falling, partial curve, poor fit] | inconclusive: 2.98 µM [inhibitor, full curve] | inconclusive: 26.6 µM [cytotoxic, partial curve] | – | – | – | inconclusive: 21.1 µM [cytotoxic, partial curve, poor fit] | inconclusive: 10.6 µM [rising, partial curve] | active: 13.3 µM | inconclusive: 21.1 µM [inhibitor, partial curve] | active: 6.68 µM | inconclusive: 13.3 µM [falling, full curve] | – | – | – | inconclusive: 3.35 µM | inconclusive: 23.7 µM [cytotoxic, partial curve] | inconclusive: -41.9% | inconclusive: 3.6%

— PubChem BioAssay (Tox21)
